In the supplement of paper PMC4466236:
In all, about 33,000 sequences were measured (“E-score (dimensionless, -0.5 to 0.5)”: median about -0.058, highest 2% from about 0.35 on). Some of the results follow.

What follows are sequences tested on MvaT (assay: PBM 8-mer E-score (mean of HK and ME arrays) (E-score (dimensionless, -0.5 to 0.5)); higher = stronger relative binding preference; most listed sequences are background and not binding sites).
Method in brief: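 Full-length P. aeruginosa MvaT carrying an N-terminal glutathione S-transferase tag was tested by protein binding microarray following a previously described protocol. Two universal double-stranded 60-mer arrays, ME and HK, were used, each with a constant 25-mer primer region and a variable 35-mer region covering all 8-mers. The rank-based E-score is the mean of the two arrays, parsed with a custom script. Its range runs from -0.5 to 0.5 for each 8-mer.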

Sequence | PBM 8-mer E-score
TAGCGTGA | -0.142
TGGGTACA | -0.183
ATCATTTG | 0.12
GGGTAATA | 0.332
ACTTTTAT | 0.363
CATTGAAG | 0.0846
TTAGCGAA | 0.099
CGGCTCGC | -0.291
CCCTACTA | -0.0833
GATATGTA | 0.282
CAGCAAAC | 0.014
ATCTACAC | 0.0272
CCCGATAG | -0.0101
ACTTTGTA | 0.192
CGGCCTAC | -0.258
CGTTATGC | 0.0725
CTTACTGA | 0.0745
CAATTCCA | 0.0822
ACAAAAAG | 0.0621
CCCCTACC | -0.348
CGATGCTC | -0.217
TCACTGCA | -0.0296
TAAACGGA | 0.205
AGCCACAG | -0.247
GAAGTAGA | -0.0544

Sequence | PBM 8-mer E-score
ACAAGCAT | 0.0341
ATGCTGAC | -0.154
CTGCACTA | 0.0832
AGGCATAA | -0.0265
CAATATAG | 0.331
AAGTCCGT | 0.0247
GGTTTAAA | 0.31
ACGTCGAA | -0.0575
CAGAAAGC | -0.192
ATTGTCTG | -0.0259
ATGGTCGG | -0.129
AGTACCGC | -0.108
GTGCACAA | 0.00028
CCGACCAC | -0.194
AGCGCAAT | 0.0659
CTGAATTA | 0.266
CTGCTAGC | -0.254
AAATTACT | 0.308
AACCAGAA | 0.0236
GAAAGTGA | 0.135
ACTAGGAC | -0.057
AACTCTGA | 0.116
AGATCTTG | -0.0529
GGGCAGAA | -0.0135
GCAGAGGC | -0.156

Sequence | PBM 8-mer E-score
AAATAACG | 0.331
ATCGCCTG | -0.215
CGGGCGAG | -0.295
AGACGCAA | -0.111
CTCGTAGC | -0.0559
ATCTGTTC | 0.0393
CACTTTAG | 0.0627
ATTGAGAC | 0.054
GGATGTAA | 0.234
GGATTCTA | -0.0779
ATCGCAGG | -0.166
AGCAGATC | -0.0539
ATATTTGC | 0.351
GAGCGTGC | -0.295
AGACTTGA | -0.116
GCATGCGC | -0.15
AGTACAAT | 0.277
AACACGCA | 0.143
CGTCTCCC | -0.168
TGTTGGAA | 0.136
CATGCCCC | -0.105
GGCTCAAC | -0.195
AGCGGGTA | 0.019
CCGAAATC | -0.112
CGTCTTAC | -0.157

Sequence | PBM 8-mer E-score
CCCTTACG | -0.219
TGTGCAAA | 0.0191
CATATCTA | 0.122
AAACCGAG | -0.106
ATGACACG | -0.12
AGCGTCGC | -0.197
AGGACGGA | -0.0832
GCATAATA | 0.339
AAGCAGGG | -0.135
CCGGGCGA | -0.287
AGTGTAAT | 0.308
CACTAAAC | 0.0791
AAACGGCG | 0.0664
ACAATTTG | 0.187
AAACTGTA | 0.136
GGTGGGGA | -0.301
CTGTCCAC | -0.113
AAATATAA | 0.442
CCACGAGG | -0.227
ACTACAGC | 0.0459
TCCGGAAA | -0.0987
CGCACCCG | -0.242
TCGACGAA | -0.14
GTTAGGAA | -0.0188
GCCAGCAC | -0.16

Sequence | PBM 8-mer E-score
CAACTACC | 0.132
CGAGCGCA | -0.0636
TAGACGCA | 0.0756
ACTTAAAC | 0.244
ATGCCCGC | -0.155
CACATGAG | -0.0967
CATGAAAG | 0.155
CATACGGA | 0.0185
CCGGGCGC | -0.153
AGCGAGGA | -0.132
GCGCAAAC | 0.0481
GCTGCAAC | -0.0708
ATGTGTTC | 0.0842
AGGGCAAA | 0.00349
CAGGCCCC | -0.325
CCAATATA | 0.367
CATTCCGG | -0.0284
GCCATTAC | -0.0881
AGGGCTTC | -0.321
ATCAAGAT | -0.0668
GGCCGATA | -0.0674
ACCTATCG | -0.108
TTCACGAA | 0.0127
ATGGCTTA | -0.0258
TACTTTAA | 0.422

Sequence | PBM 8-mer E-score
ACAAGGGG | -0.104
AAGCTAGG | -0.267
CCCCAGTC | -0.137
CAGCAATA | 0.25
GCTATAGC | -0.0328
AATAAGCT | 0.231
ACCACCAT | -0.0102
GCTTGTTA | 0.126
GCCCTTTA | -0.0688
CGTCTTGC | -0.0702
GATTTAAA | 0.395
AGGGGATG | -0.294
AAGTAGGC | 0.0924
AGATGCCG | -0.239
ACGATGGA | -0.117
GACTAGCC | -0.141
ACCGCGAG | -0.279
TTAGTAAA | 0.216
CGGAACCA | -0.158
CGGCCCAA | -0.186
ATTGATGA | 0.0305
CATCTTAC | 0.0767
ACAACTAT | 0.336
CCCATGCA | -0.23
TCTATAAA | 0.103

Sequence | PBM 8-mer E-score
CGGATATC | 0.00792
ATAGTCGA | 0.152
ACACTAGA | -0.0048
AGCATAGG | -0.000532
CTAAGTTA | 0.352
AAGATCAT | 0.11
CCTCTGAC | -0.327
CGAGCCAC | -0.175
CAACAACC | 0.0804
CGCGCAAG | 0.0254
TCCTCAGA | -0.142
ACATTTTG | 0.0944
ACGGTGTG | -0.0988
CCGAATAA | 0.188
CCACAAAG | -0.0754
ACCCACAT | 0.105
GTACGCTA | -0.0281
ACAGAAGA | 0.0811
AGAATCCG | -0.0107
AATCTTCT | 0.138
TCGGGAGA | -0.176
CAAGGAGG | -0.322
